Laboratory results reported in patent US20220275083A1 (EUTILEX, published 2022).

B1: human PD-1-Fc (SinoBiologics, Cat. No. 10377-H02H) (Fc fusion)
chain: not shown
notes: Bought fusion protein; also called human natural PD1-Fc; natural PD-1; not shown: Fc part of the bought fusion; not described
B2: S12 (4-1BB null variant of S03) (bispecific antibody)
chain: [here about 100 residues without letters]GSTSGSGKPGSGEGSTKG[here about 100 residues without letters]PFPYFDYWGQGTLVTVSSASGGGGSGGGGSDKTHTCPPCPAPEAAGGPSVFLFPPKPKDTLMISRTPEVTCVVVDVSHEDPEVKFNWYVDGVEVHNAKTKPREEQYNSTYRVVSVLTVLHQDWLNGKEYKCAVSNKALPAPIEKTISKAKGQPREPQVYTLPPSREEMTKNQVSLTCLVKGFYPSDIAVEWESNGQPENNYKTTPPVLDSDGSFFLYSKLTVDKSRWQQGNVFSCSVMHEALHNHYTQKSLSLSPGGGGGSGGGGSFLESPDRPWNAPTFSPALLLVAEGDNATFTCSFSNASESFHVVWHRESPSGQTDTLAAFPEDRSQPGQDHRFRVTRLPNGRDFHMSVVRAQRNDSGTYVCGVISLAPKIQIKESLRAELRVTERRAEVPTAHPSPSPRPAGQFQTLVVG
notes: S03 with the anti-4-1BB antibody substituted by human germline antibody (DP47); keeps euPD-1

Legend:
[1] = biological target: T1, biotinylated PD-L2 (SinoBiologics, Cat. No. 10292-H08H-B) (UniProt Q9BQ51 20-219, biotinylated); experiment: ELISA, human PD-1-Fc coated at 2 ug/ml, biotinylated PD-L2 titrated 0.01-1.00 ug/mL, avidin-HRP
T1 construct: Bought antigen
T1 sequence (looked up): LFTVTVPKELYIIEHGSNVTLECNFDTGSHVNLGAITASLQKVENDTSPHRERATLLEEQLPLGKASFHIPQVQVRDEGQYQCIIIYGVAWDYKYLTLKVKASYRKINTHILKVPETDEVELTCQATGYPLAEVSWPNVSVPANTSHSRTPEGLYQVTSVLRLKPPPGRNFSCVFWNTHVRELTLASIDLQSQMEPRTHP

[2] = biological target: T2, biotinylated 4-1BB antigen (SinoBiologics, Cat. No. 10041-H08H-B) (UniProt Q07011 24-186, biotinylated); experiment: dual antigen ELISA: PD-L1 coated, S12 titrated, detection with biotinylated 4-1BB and avidin-HRP; lack of signal laid by the filing to the missing anti-4-1BB part
T2 construct: Bought antigen

4-1BB antigen (abclon) = biological target: T3, 4-1BB antigen (abclon) (UniProt Q07011 24-186); experiment: ELISA, 4-1BB antigen coated, anti-human IgG Fc-HRP detection, 11 points
T3 construct: Bought antigen

Chain of 4-1BB antigen (abclon) (Q07011 24-186): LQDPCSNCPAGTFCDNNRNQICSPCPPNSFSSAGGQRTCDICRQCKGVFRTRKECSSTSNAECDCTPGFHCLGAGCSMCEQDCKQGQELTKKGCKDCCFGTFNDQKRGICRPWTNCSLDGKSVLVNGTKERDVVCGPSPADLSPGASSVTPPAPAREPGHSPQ

| Binder | binding result [1] | binding result [2] | binding result (4-1BB antigen (abclon)) |
| --- | --- | --- | --- |
| B1 | binds | – | – |
| B2 | – | no binding (tested: log 2 ug/ml (100 ug/ml)) | no binding (tested: log -0.3 ug/mL (0.5 ug/ml)) |
